# Assay results from PubChem BioAssay AID686978 (National Center for Advancing Translational Sciences (NCATS), 2013).
# Screen size: about 420,000 compounds; about 64,000 (15%) were called active. The inconclusive results got no clear call from the source; some entries with a clear call stand among them for comparison. Calls follow the shape of the dose curve; as a rule, active = well fitted inhibition curve with a large enough effect; inconclusive = small, poorly fitted or top-dose-only effect; inactive = flat fitted curve, though single readings scatter. Potencies of inconclusive entries are left out as doubtful fits.
# Test: qHTS for Inhibitors of human tyrosyl-DNA phosphodiesterase 1 (TDP1): qHTS in cells in absence of CPT; also: nearly all actives have a fitted effect of over 55% in size
# Conditions: DT40 Tdp1-/- hTDP1 cells, no CPT, ATP luminescence, 48 h
# Procedure, shortened: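 Chicken DT40 Tdp1-/- cells stably complemented with human TDP1 were seeded at 400 cells/well with DMSO in place of 20 nM camptothecin. After compound pinning, cells grew at least 48 hr at 37 °C; viability read by CellTiter-Glo luminescence.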
# [1] = activity change, negative = growth inhibition: at 46.2 µM (top of the series) unless noted
# % is scaled to controls: 0 for no effect and ±100 for the full control effect; potency is read from the fitted curve at half-maximal effect; tags tell the direction and shape of the fitted curve.
smiles,measurement,setting,value
CCCCc1ccc(NC(=S)Nc2ccc(Nc3ccc(OC)cc3)cc2)cc1,Potency,[1],active: 20.6 µM
CCNC(=O)CSc1nc2ccccc2c(=O)n1OC,Potency,[1],inactive
OC(c1ccccc1)(c1ccccc1)C1CCN(CCCOc2ccc(F)cc2)CC1,Potency,[1],"inconclusive [inhibitor, single point]"
O=C(CCS(=O)(=O)c1ccc(Cl)cc1)Nc1nnc(-c2ccco2)o1,Potency,[1],"inconclusive [inhibitor, single point]"
O=C(CNCc1ccc(Cl)cc1)N1CCc2ccccc2C1,Potency,[1],inactive
COC(=O)c1ccc(Cn2nnc3c(=O)[nH]c(C4CCCN(S(=O)(=O)c5ccc(C)cc5)C4)nc32)cc1 (centres undefined),Potency,[1],"inconclusive [inhibitor, partial curve]"
CC(C)N(C(=O)[C@H]1CC(CC(=O)NCCCn2ccnc2)C(=O)N2CCc3c([nH]c4ccccc34)[C@]12C)C(C)C (some centres undefined),Potency,[1],inactive
CN(C)/C=N/N(C)c1ncccc1[N+](=O)[O-],Potency,[1],inactive
CC(=O)N1CCCN(Cc2cn(-c3ccc(C)cc3)nc2-c2cccc(C)c2)CC1,Potency,[1],"inconclusive [inhibitor, single point]"
CCOC(=O)C1(C#N)Cc2ccccc2C1,Potency,[1],inactive
COC(=O)[C@]12CCCCC=C1N(Cc1cccc3ccccc13)C(=O)[C@H](CC(=O)NCc1ccc(OC)c(OC)c1)C2,Potency,[1],"inconclusive [inhibitor, single point]"
CN(C(=O)c1cccnc1)c1nc(-c2ccccc2)cs1,Potency,[1],"inconclusive [inhibitor, partial curve, poor fit]"
O=[N+]([O-])c1ccc2[nH]c(=S)[nH]c2c1,Potency,[1],inactive
COc1ccc(-c2cc(C(F)(F)F)nc(SCCC(=O)NCc3ccccc3)n2)cc1,Potency,[1],active: 18.4 µM
COc1ccc([C@H]2CC(=O)C=C(c3cccc(OC)c3OC)C2)cc1OC,Potency,[1],active: 23.1 µM
CCN(CC)C1Oc2cc3c(cc2C(c2cc(OC)c(O)c(OC)c2)C1C)OCO3 (centres undefined),Potency,[1],"inconclusive [inhibitor, single point]"
CC(OC(=O)/C=C/c1cccs1)C(=O)Nc1ccc(S(N)(=O)=O)cc1 (centres undefined),Potency,[1],"inconclusive [inhibitor, single point]"
O=C(CC12CC3CC(CC(C3)C1)C2)NCc1ccc(F)cc1,Potency,[1],"inconclusive [inhibitor, single point]"
CCN(CC)c1ccc(C=Nc2ccc(C#N)cc2)c(O)c1,Potency,[1],inactive
Cc1[nH]nc(C(F)(F)F)c1N=NN1CCOCC1,Potency,[1],active: 3.26 µM
Cc1ccc(Nc2nc(N)c([N+](=O)[O-])c(N3CCCC(C)C3)n2)cc1C (centres undefined),Potency,[1],"inconclusive [inhibitor, partial curve]"
O=[N+]([O-])c1nn(-c2ccccc2)n(O)c1=NCc1ccc2c(c1)OCO2,Potency,[1],"inconclusive [inhibitor, partial curve]"
COc1ccc(OC)c(NC(=O)C2=C(C)C(=O)OC23CCCCCC3)c1,Potency,[1],"inconclusive [inhibitor, single point]"
Cc1nc2ccccc2n1CC(O)c1ccccc1 (centres undefined),Potency,[1],inactive
COc1ccc(-n2c(-c3ccc(OC)c(OC)c3)n[nH]c2=S)cc1,Potency,[1],inactive
CCC(=O)Nc1ccc(NCc2ccc(-c3ccccc3)cc2)cc1,Potency,[1],"inconclusive [inhibitor, single point]"
Cc1noc(C)c1NC(=O)N(C)C[C@H]1Oc2ccc(NC(=O)Nc3ccccc3)cc2C(=O)N([C@H](C)CO)C[C@@H]1C,Potency,[1],inactive
N#CCCN/N=C(/Cc1nc2ccccc2[nH]1)c1cccc(Cl)c1,Potency,[1],"inconclusive [inhibitor, partial curve, poor fit]"
COc1ccc(Cc2nc3ccc(C(=O)N(C)C(C)c4ccon4)cc3o2)cc1 (centres undefined),Potency,[1],inactive
CCO[C@@H]1OC(C(N)=O)=C[C@H](c2ccccc2)[C@H]1CCCO,Potency,[1],inactive
CCN(CC)CCCNC(=O)c1cnc(SC)nc1-c1ccccc1,Potency,[1],inactive
O=C(C1CCC(=O)N(C2CC2)C1)N1CCC(Oc2cccc(C(F)(F)F)c2)CC1 (centres undefined),Potency,[1],"inconclusive [inhibitor, single point]"
COC(=O)C1CN(C(=O)C(C)Oc2ccc(C(C)C)cc2)c2ccccc2O1 (centres undefined),Potency,[1],"inconclusive [inhibitor, single point]"
Cc1cccc(OCC(=O)NNC(=O)C2CCCCC2C(=O)O)c1 (centres undefined),Potency,[1],inactive
Cc1ccc(C)c(N2CCN(S(=O)(=O)c3c(C)[nH]c(C)c3C(=O)N3CCCC3)CC2)c1,Potency,[1],active: 23.1 µM
CCN(CC)CCCNC(=O)c1cn(C)c2ccc(S(=O)(=O)N(C)C3CCCCC3)cc2c1=O,"activity change, negative = growth inhibition",[1],inconclusive: -31.5% [inhibitor]
same,"activity change, negative = growth inhibition",at 46.2 µM (top of the series),inactive: 3.24%
Cc1ccc(-c2cc(C(=O)NCc3ccco3)c3ccccc3n2)o1,Potency,[1],"inconclusive [inhibitor, single point]"
CC(=O)Nc1cccc(NC(=O)CCN2C(=O)c3ccccc3S2(=O)=O)c1,Potency,[1],inactive
O=C(CSc1nnc(CNc2ccc(F)cc2)n1Cc1ccccc1)NCc1ccccc1,Potency,[1],"inconclusive [inhibitor, single point]"
COc1ccc(CNC(=O)c2cccc3c(-c4cccnc4)coc23)cc1OC,Potency,[1],active: 1.46 µM
Cn1cccc1Cc1nnc(SCC(=O)N2CCCCCC2)n1-c1ccc(F)cc1,Potency,[1],"inconclusive [inhibitor, partial curve]"
Cc1ccc(CN(C(=O)COc2ccc([N+](=O)[O-])cc2)c2ccccn2)cc1,Potency,[1],active: 16.4 µM
Cc1ccc(C)c(SCC(=O)NC2CCS(=O)(=O)C2)c1 (centres undefined),Potency,[1],inactive
CC(=O)N[C@@H](C)C(=O)N1CCC(n2nccc2NC(=O)CCCc2ccccc2)CC1,Potency,[1],inactive
CN1CCN(C(=O)c2ccccc2N(Cc2ccccc2)S(=O)(=O)c2ccccc2)CC1,"activity change, negative = growth inhibition",[1],inconclusive: -31% [inhibitor]
CN1CCCN(S(=O)(=O)c2ccc(Cl)c(Cl)c2)CC1,Potency,[1],inactive
CCN1CCN(Cc2c(O)ccc3c(=O)c(-c4ccccc4OC)coc23)CC1,Potency,[1],inactive
CC(C)CCNC(=O)c1onc(CSc2ccccn2)c1C(=O)NCCC(C)C,Potency,[1],"inconclusive [inhibitor, single point]"
